The structures appear in SMILES notation. Several values for one entry are separate records, joined by “and”; a condition that tells them apart may be missing. Equal entries are not always repeated. Among all 110,000 compounds or so, about 230 (0.21%) showed an effect of 50% or more. The list shows a part of the results.
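Also: 30 min substrate incubation versus DMSO and 10 µM JCP410 controls.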

This experiment deals with DPAP1 (Plasmodium falciparum, UniProt Q8IIJ9). The experiment is described as follows: primary screen, percent inhibition; read by cleavage of a fluorogenic dipeptide substrate; higher = more effect of the substance. Details: species or system P. falciparum D10 trophozoite lysates; single well.
DPAP1, sequence (Q8IIJ9 whole entry, looked up): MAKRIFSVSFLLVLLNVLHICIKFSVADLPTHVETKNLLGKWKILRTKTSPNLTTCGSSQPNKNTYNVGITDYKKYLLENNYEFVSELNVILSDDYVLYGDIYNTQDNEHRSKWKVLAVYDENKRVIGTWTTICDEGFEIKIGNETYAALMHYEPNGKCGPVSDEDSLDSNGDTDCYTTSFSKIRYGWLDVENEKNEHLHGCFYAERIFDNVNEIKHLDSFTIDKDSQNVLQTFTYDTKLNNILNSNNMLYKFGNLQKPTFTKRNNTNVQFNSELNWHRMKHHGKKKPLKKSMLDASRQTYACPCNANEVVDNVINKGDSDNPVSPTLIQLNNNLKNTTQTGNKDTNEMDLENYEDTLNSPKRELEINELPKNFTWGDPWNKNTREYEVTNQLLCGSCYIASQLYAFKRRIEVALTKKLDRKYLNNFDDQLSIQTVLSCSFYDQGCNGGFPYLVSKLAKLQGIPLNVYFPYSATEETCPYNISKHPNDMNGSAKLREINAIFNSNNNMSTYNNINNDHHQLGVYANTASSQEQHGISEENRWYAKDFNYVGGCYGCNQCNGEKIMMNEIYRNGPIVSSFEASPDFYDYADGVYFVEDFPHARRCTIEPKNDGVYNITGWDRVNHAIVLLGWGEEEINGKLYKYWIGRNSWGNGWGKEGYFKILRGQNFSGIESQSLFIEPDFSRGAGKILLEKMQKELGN
On to `O=C(NCCc1ccc(Cl)cc1)c1nc(-c2ccc(-n3cccc3)cc2)no1`, for which the “% Inhibition @ 10 uM” value was -2.05%. In the case of `COC(=O)[C@@H]1COC(C(O)[C@H](CCc2ccccc2)NC(=O)CCC2CCCCC2)=N1` (stereo partly shown) it was 4.33%; in that of `COc1ccc(-n2c(N)c(C#N)c3nc4ccccc4nc32)cc1`, 3.31%; in that of `CCN1C(=O)c2ccc(C(=O)NCc3ccco3)cc2C1=O`, -2.46%.

For `CN(C)c1ccc(NC(=O)Nc2ccc(Cl)c(Cl)c2)cc1`, the “% Inhibition @ 10 uM” value was 0.51%. Turning to `CN1CCN(CC2CC=CCC2)CC1` (stereo not shown), the “% Inhibition @ 10 uM” value worked out at 1.62%. On to `COc1ccc(N(CC(=O)Nc2ccccc2C(C)C)S(C)(=O)=O)cc1`, for which the “% Inhibition @ 10 uM” value is reported as 17.9%. As for `CC(C)c1ccccc1NC(=O)COc1ccc(Br)cc1`, the “% Inhibition @ 10 uM” value is -4.07%.

Consider `CC1CCN(c2ccc3nnc(CCC(=O)Nc4ccccn4)n3n2)CC1`, for which the “% Inhibition @ 10 uM” value is on record as -0.826%. Regarding `Oc1[nH]c2ccccc2c1/C=N/Cc1ccccc1`, the “% Inhibition @ 10 uM” value worked out at 4.74%. The figure for `C=Cc1ccc(Cn2c(C(=O)O)c(CNCCc3ccc(Cl)cc3)c3ccc(C)cc32)cc1` is 6.57%.

For the compound `COc1ccc(C(=O)O)cc1S(=O)(=O)Nc1ccccc1C`, the “% Inhibition @ 10 uM” value was -1.38% and 2.01%. The figure for `O=C1CCCN1C(=O)c1ccc(F)cc1` is -5.08%; for `CNc1nc(Cl)nc(NC(C)(C)C)n1` it is 0.968%; for `CCN1CCN(CC2CCCCC2)CC1` it is -5.94%. For `O=C(Cc1ccccc1)n1nc(-c2ccco2)nc1SCc1ccccc1`, the “% Inhibition @ 10 uM” value was 4.08%. In the case of `CN(C)CC(=O)N1c2ccccc2CCc2ccc(N)cc21` it was -0.736%. The figure for `Cc1ccc(Cn2c(=O)c3ccccc3n3c(CCC(=O)O)nnc23)cc1` is -2.42%; for `COc1ccccc1NC(=O)c1c(NCc2cccnc2)sc2c1CCC(C)C2` (stereo not shown) it is -1.68%; for `CC(=O)n1c(C)c(-c2ccccc2)c2cc(Cl)ccc21` it is -3.77%.

For `COc1ccc(C2C3=C(O)CCCC3=NC(C)=C2C(=O)Nc2cccc(C(F)(F)F)c2)c(OC)c1` (stereo not shown), the “% Inhibition @ 10 uM” value amounted to 2.38%. In the case of `CC1=C(C#N)C(Nc2ccc(Cl)cn2)(C(F)(F)F)C(=O)N1` (stereo not shown) it was -3.33%. In the case of `O=C(COCc1cc(-c2ccc3c(c2)OCO3)on1)N1CCC2(CC1)OCCO2` it was 6.04%; in that of `CC1CCC(N2CCCC(O)C2)CC1` (stereo not shown), -1.81%; in that of `OC1CCN(Cc2cccc(Cl)c2Cl)CC1`, -0.969%. In the case of `CCn1c(C(C)N2CCCCC2)nc2ccccc21` (stereo not shown) it was -3.08%; in that of `O=C(Nc1nc(-c2ccc(Cl)c(Cl)c2)cs1)c1cnccn1`, -3.33%; in that of `CC(C)Cn1c2c(c(=O)[nH]c1=O)C(NS(=O)(=O)c1ccc(Cl)cc1)(C(F)(F)F)C(=O)N2` (stereo not shown), 0.561%.

On to `CCOc1cc(/C=C2\S/C(=N/c3ccc(C(=O)O)cc3)N(C)C2=O)ccc1O`, for which the “% Inhibition @ 10 uM” value is on record as 2.22%. The figure for `CCOC(=O)c1[nH]c2ccccc2c1NC(=O)C(C)(C)Oc1ccc(Cl)cc1` is 3.49%. In the case of `CN1C/C(=C\c2ccc3nccnc3c2)C(=O)/C(=C/c2ccc3nccnc3c2)C1`, the “% Inhibition @ 10 uM” value was found to be 0.287%. The figure for `CCNC(=O)NS(=O)(=O)c1cnccc1Nc1cccc(Cl)c1` is -0.116%; for `COc1cc(-c2nc3s/c(=C\c4cccs4)c(=O)n3n2)cc(OC)c1OC` it is 6.96%. The figure for `Cc1sc(NC(=O)c2cc3cc(Br)ccc3oc2=O)nc1-c1cccs1` is -4.18%; for `O=C(NCc1ccco1)c1cccc2c1C(=O)N(CC1CCCO1)C2` (stereo not shown) it is 5.13%. In the case of `COc1cccc(NC(=O)CSc2ccccn2)c1` it was -5.34%. `O=C1Cc2ccccc2C1=C1Cc2ccccc2C1`: the “% Inhibition @ 10 uM” value is listed as -4.68%. Turning to `NC(=O)/C(=C/c1ccccc1)NC(=O)c1ccc(Br)o1`, the “% Inhibition @ 10 uM” value is on record as 12.2%. As to `Nc1c(C(=O)Nc2cccc(F)c2)sc2nc(-c3ccc4c(c3)OCO4)ccc12`, the “% Inhibition @ 10 uM” value was -1.57%. With `CCOC(=O)c1c(C)[nH]c(C)c1S(=O)(=O)NCC(C)c1ccccc1` (stereo not shown), the “% Inhibition @ 10 uM” value is -4.78%.

Take `Cc1cc(C)c2nc(N3CCCC(C(=O)NCc4ccc(F)cc4)C3)sc2c1` (stereo not shown): the “% Inhibition @ 10 uM” value amounted to 7.91%. The figure for `Cc1ccc(/C(O)=C/C=N/C(Cc2c[nH]c3ccccc23)C(=O)O)cc1` (stereo not shown) is 4.3%; for `Nc1c(C(=S)Nc2ccccc2)c(=O)nc2ccccn12` it is -3.65%; for `Oc1cccc(/C=N/c2c(-c3ccco3)nc3ccccn23)c1` it is 14.3%. The figure for `COc1cc(/C=C2/C(=N)N3OC(C)=CC3=NC2=O)ccc1OCCCOc1ccccc1` is -3.23%.

Turning to `COc1cccc([C@H]2NCC[C@@]3(O)CCCC[C@H]23)c1O`, the “% Inhibition @ 10 uM” value is recorded as 1.66%.

As for `COc1ccc(-c2noc(N3CCC(C(=O)N4CC(C)CC(C)C4)CC3)n2)cc1` (stereo not shown), the “% Inhibition @ 10 uM” value was determined as 1.07%. The figure for `O=C(CCN1C(=O)c2ccccc2C1=O)N1CCCCC1` is 3.65%; for `CCCCC(=O)C1=C(N2CCCC2)CC(C)(C)CC1=O` it is -1.64%. In the case of `O=C(NCc1cccnc1)Nc1ccccc1Cl` it was -10.9%; in that of `COc1cccc(-c2coc3cc4oc(=O)ccc4cc23)c1`, -1.37%. In the case of `Cc1ccc(/C=C(\NC(=O)c2ccccc2)C(=O)Nc2cccc(Cl)c2C)o1` it was 4.09%.

For `COc1cc2oc(=O)c(CC(=O)N3CCCC3)c(C)c2cc1Cl`, the “% Inhibition @ 10 uM” value is reported as -0.808%.

With `CCCCN(CCCC)CCNC(=O)c1ccc(CNS(=O)(=O)c2ccc(C)cc2)cc1`, the “% Inhibition @ 10 uM” value is recorded as 1.69%. In the case of `COc1ccccc1NC(=O)C(=O)NCC(C)C` it was -1.5%; in that of `Oc1c2nc3ccccc3c-2ncn1CCN1CCC(Cc2ccccc2)CC1`, 3.24%. The figure for `Cc1ccc2occ(CC(=O)N(Cc3ccccc3)Cc3ccco3)c2c1` is -4.19%; for `COc1ccc(N2CCN(C(=O)c3ccc(CNS(=O)(=O)c4cccc(OC)c4)cc3)CC2)cc1` it is -7.25%.

As to `COc1ccc(-c2cc(C(=O)NCC3CCCO3)c3ccccc3n2)c(OC)c1` (stereo not shown), the “% Inhibition @ 10 uM” value is recorded as -4.77%. In the case of `CN(CC(=O)NCc1ccco1)c1nnc(N2CCCC2=O)s1` it was -0.698%. In the case of `Cc1cccc(C)c1NC(=O)/C=C/c1ccc(C(C)C)cc1` it was -3.87%; in that of `COc1ccc(CNC(=O)CCN2C(=O)c3ccncc3C2=O)cc1OC`, 4.61%; in that of `COC(=O)C1=C(C)NC(=O)CC1c1cc([N+](=O)[O-])ccc1Cl` (stereo not shown), -2.18%. Consider `Cc1ccc(C(=O)Nc2sc3c(c2C(N)=O)CCC(C)C3)o1` (stereo not shown), for which the “% Inhibition @ 10 uM” value is listed as 2.92%.

Consider `O=C(O)c1cccc(COc2ccc(Cl)cc2Cl)c1`, for which the “% Inhibition @ 10 uM” value came to 6.01%.

On to `NC(=O)COc1ccc(-c2ccccc2)cc1`, for which the “% Inhibition @ 10 uM” value was determined as 3.25%.

Take `CCN(Cc1ccccc1)C(=O)Cn1cc(S(=O)(=O)NC)c(S(=O)(=O)NC)c1`: the “% Inhibition @ 10 uM” value is given as -4.18%. In the case of `COc1ccc(-c2cs/c(=N\c3ccccc3C)n2CCO)cc1` it was 0.83%; in that of `COc1cc2c(cc1OC)-c1nnc(C)n1C1(CCCC1)C2`, 4.66%; in that of `COc1ccc(CCNC(=O)/C=C/c2ccco2)cc1`, 3.47%.

On to `COc1cccc2c1OC1(C)CC2C(S(=O)(=O)c2ccc(C(C)(C)C)cc2)C(=O)N1C` (stereo not shown), for which the “% Inhibition @ 10 uM” value is given as -2.67%.

Regarding `O=C1/C(=C/c2ccc(F)cc2)CCC1C1CCCC1` (stereo not shown), the “% Inhibition @ 10 uM” value turned out to be 23.4%.

As to `O=C1C2CCCCN2C(=O)N1CCCCN1CCN(c2ccc(F)cc2)CC1` (stereo not shown), the “% Inhibition @ 10 uM” value is reported as -5.81%.

Regarding `CCCCNC(=O)c1cnn2c(C(F)F)cc(-c3ccc(OC)cc3)nc12`, the “% Inhibition @ 10 uM” value was 1.67%. In the case of `CCCS(=O)(=O)N1CCC(C(=O)NCCCN2CCCCC2C)CC1` (stereo not shown) it was 4.81%; in that of `COc1ccc(CCCC(=O)Nc2ccc3ccccc3c2)cc1`, -1.84%; in that of `CC1CCN(CC(=O)Nc2nc(-c3ccccc3)cs2)CC1`, -7.15%. Turning to `COc1cc(C(=O)Nc2c(C)nn(Cc3ccc(Br)cc3)c2C)cc(OC)c1OC`, the “% Inhibition @ 10 uM” value worked out at 0.35%.

In the case of `O=[N+]([O-])c1ccc(CNc2ccc(F)c(Cl)c2)s1`, the “% Inhibition @ 10 uM” value stood at 3.19%.

As for `CCn1c(C(=O)O)c(CNCCc2c[nH]c3ccccc23)c2ccccc21`, the “% Inhibition @ 10 uM” value is recorded as 3.54%. The figure for `CCC(C)NS(=O)(=O)c1ccc(OCC(=O)Nc2cc(C(F)(F)F)ccc2Cl)cc1` (stereo not shown) is -1.6%; for `COc1cccc(C2=N/C(=C\c3cc(Br)ccc3OC)C(=O)O2)c1` it is 0.434%. For the compound `CCOC(=O)C1=C(NC(=O)CC)c2ccccc2CC12CCCCC2`, the “% Inhibition @ 10 uM” value turned out to be 4.15%. In the case of `CCCOc1cccc(C(=O)Nc2nc(-c3ccc(F)cc3F)cs2)c1` it was 5.55%. Consider `COc1ccc(-c2[nH]nc3nc(-c4ccc(O)c(OC)c4)cc(C(=O)O)c23)cc1`, for which the “% Inhibition @ 10 uM” value was -2.97%. In the case of `COc1ccc(C2=NCC(S)=Nc3ccc(Cl)cc32)cc1OC` it was 1.88%. For the compound `O=C(O)COc1c(Br)cc(C=C2C(=O)NC(=O)NC2=O)cc1Br`, the “% Inhibition @ 10 uM” value is reported as -2.26%. Take `Cc1ccc(CNC(=O)CN(C)S(=O)(=O)c2c(C)cc(C)cc2C)cc1`: the “% Inhibition @ 10 uM” value is reported as -1.16%. In the case of `CC(CN(C)CCc1ccccn1)c1ccccc1` (stereo not shown) it was -4.04%; in that of `O=C(c1ccccc1Cl)N1CCN(CCN2C(=O)c3cccc4cccc(c34)C2=O)CC1`, -0.622%. In the case of `CSc1nc(N)c(C#N)c(-c2ccc(Br)cc2)c1C#N` it was -0.906%. The figure for `Cc1nn(CC(=O)N2CCN(c3ccccn3)CC2)c(=O)c2c1sc1ccccc12` is 1.31%.

On to `Cc1ccccc1OCC(=O)NCCN1CCCC1`, for which the “% Inhibition @ 10 uM” value is given as -1.04%.

Regarding `CN(Cc1ccccc1)C(=O)Cn1cc(S(=O)(=O)N2CCCC2)c(S(=O)(=O)N2CCCC2)c1`, the “% Inhibition @ 10 uM” value stood at 3.2%. As to `CSc1nc(-c2ccc(C)cc2)nc2c1Cc1c(CO)cnc(C)c1O2`, the “% Inhibition @ 10 uM” value was 1.68%.

Take `COc1ccc(N(CC(=O)N2CCN(c3ccccc3)CC2)S(=O)(=O)c2ccccc2)cc1OC`: the “% Inhibition @ 10 uM” value was -7.69%. In the case of `O=C(NCc1cccnc1)c1cc2nc(-c3cccs3)cc(C(F)(F)Cl)n2n1` it was 2.95%; in that of `Cc1oc(-c2ccc(Cl)cc2)nc1CS(=O)CC(=O)NCCN1CCOCC1` (stereo not shown), 0.689%.

Turning to `Cc1nc2c(c(C)c1CCC(=O)N1CCC(Cc3ccccc3)CC1)c(=O)n(C)c(=O)n2C`, the “% Inhibition @ 10 uM” value amounted to 2.12%.

For `CCCC(=O)Nc1nnc(S(=O)(=O)N(C)Cc2ccco2)s1`, the “% Inhibition @ 10 uM” value is on record as -10.1%.

For the origin of these results see paper PMC6919601, “Identification of Plasmodium dipeptidyl aminopeptidase allosteric inhibitors by high throughput screening” (PLoS ONE, 2019).
